# In the supplement of paper PMC8728848:
# The list shows a part of the results.
# B1: FimD (Bordetella pertussis) (protein)
# chain: MPARVISFCGAALAVWAGLAVQPAMAVDPPVDCGRALGLHFWSSASLISDQTPDGTLIGKPVVGRSLLSKSCKVPDDIKEDLSDNHDGEPVDIVLELGSNYKIRPQSYGHPGIVVDLPFGSTEETGIAIYIDFGSSPMQKVGERQWLYPQKGEVLFDVLTINGDNAEVRYQAIKVGPLKRPRKLVLSQFPNLFTYKWVFMRGTSQERVLAQGTIDTDVATSTIDLKTCRYTSQTVSLPIIQRSALTGVGTTLGMTDFQMPFWCYGWPKVSVYMSATKTQTGVDGVALPATGQAAGMASGVGVQLINGKTQQPVKLGLQGKIALPEAQQTESATFSLPMKAQYYQTSTSTSAGKLSVTYAVTLNYD
# Legend:
# Assay in all cases: glycan array binding signal (z-score within array); higher = stronger binding
# Details in all cases: glycan notation: IUPAC condensed, linker removed
# [1] = target: GlcNAc(b1-3)Gal(b1-4)GlcNAc(b1-3)Gal(b1-4)GlcNAc(b1-3)GalNAc
# In short: (§1)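 Glycan array data came from 3228 arrays in the Consortium for Functional Glycomics database, and only arrays with an available protein sequence were kept. Glycan names were put into IUPAC-condensed notation, and columns mapping to the same glycan were averaged. The binding signal is a within-array Z-score, averaged across arrays of one protein sequence run at different concentrations or buffers and across linkers. A negative Z-score can be read as non-binding.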
# [2] = target: GlcNAc(b1-3)Gal(b1-4)GlcNAc(b1-3)GalNAc
# In short: as §1
# [3] = target: GlcNAc(b1-3)Gal(b1-4)GlcNAc(b1-3)[GlcNAc(b1-3)Gal(b1-4)GlcNAc(b1-3)]GalNAc
# In short: as §1
# [4] = target: GlcNAc(b1-3)Gal(b1-4)GlcNAc(b1-6)[Gal(b1-3)]GalNAc
# In short: as §1
# [5] = target: GlcNAc(b1-3)Gal(b1-4)GlcNAc(b1-6)[GlcNAc(b1-3)Gal(b1-3)]GalNAc
# In short: as §1
# [6] = target: GlcNAc(b1-3)Gal(b1-4)GlcNAc(b1-6)[GlcNAc(b1-3)]Gal(b1-4)GlcNAc
# In short: as §1
# [7] = target: GlcNAc(b1-3)GalNAc
# In short: as §1
# [8] = target: GlcNAc(b1-3)Man
# In short: as §1
# [9] = target: GlcNAc(b1-3)[GlcNAc(b1-4)][GlcNAc(b1-6)]GlcNAc
# In short: as §1
# [10] = target: GlcNAc(b1-3)[GlcNAc(b1-6)]Gal(b1-4)GlcNAc
# In short: as §1
# [11] = target: GlcNAc(b1-3)[GlcNAc(b1-6)]GalNAc
# In short: as §1
# [12] = target: GlcNAc(b1-4)Gal(b1-4)GlcNAc
# In short: as §1
# [13] = target: GlcNAc(b1-4)GlcNAc
# In short: as §1
# [14] = target: GlcNAc(b1-4)GlcNAc(b1-4)GlcNAc
# In short: as §1
# [15] = target: GlcNAc(b1-4)GlcNAc(b1-4)GlcNAc(b1-4)GlcNAc(b1-4)GlcNAc
# In short: as §1
# [16] = target: GlcNAc(b1-4)GlcNAc(b1-4)GlcNAc(b1-4)GlcNAc(b1-4)GlcNAc(b1-4)GlcNAc
# In short: as §1
# [17] = target: GlcNAc(b1-4)[GlcNAc(b1-6)]GalNAc
# In short: as §1
# [18] = target: GlcNAc(b1-6)Gal(b1-4)GlcNAc
# In short: as §1
# [19] = target: GlcNAc(b1-6)GalNAc
# In short: as §1
# [20] = target: GlcNAc6S(b1-3)Gal(b1-4)GlcNAc
# In short: as §1
# [21] = target: Kdn(a2-3)Gal(b1-3)GalNAc
# In short: as §1
# [22] = target: Kdn(a2-3)Gal(b1-3)GlcNAc
# In short: as §1
# [23] = target: Kdn(a2-3)Gal(b1-4)Glc
# In short: as §1
# [24] = target: Kdn(a2-3)Gal(b1-4)GlcNAc
# In short: as §1
# [25] = target: Kdn(a2-3)Gal(b1-4)[Fuc(a1-3)]GlcNAc
# In short: as §1
# [26] = target: Kdn(a2-6)Gal(b1-4)GlcNAc
# In short: as §1
# [27] = target: Man(a1-2)Man(a1-2)Man(a1-3)Man
# In short: as §1
# [28] = target: Man(a1-2)Man(a1-2)Man(a1-6)[Man(a1-3)]Man
# In short: as §1
# [29] = target: Man(a1-2)Man(a1-3)Man
# In short: as §1
# [30] = target: Man(a1-2)Man(a1-3)[Man(a1-2)Man(a1-6)]Man
# In short: as §1
# [31] = target: Man(a1-2)Man(a1-3)[Man(a1-2)Man(a1-6)]Man(a1-6)[Man(a1-2)Man(a1-2)Man(a1-3)]Man
# In short: as §1
# [32] = target: Man(a1-2)Man(a1-3)[Man(a1-2)Man(a1-6)]Man(a1-6)[Man(a1-2)Man(a1-2)Man(a1-3)]Man(b1-4)GlcNAc(b1-4)GlcNAc
# In short: as §1
# [33] = target: Man(a1-2)Man(a1-3)[Man(a1-6)]Man(a1-6)[Man(a1-2)Man(a1-3)]Man(b1-4)GlcNAc(b1-4)GlcNAc
# In short: as §1
# [34] = target: Man(a1-2)Man(a1-6)[Man(a1-3)]Man(a1-6)[Man(a1-2)Man(a1-2)Man(a1-3)]Man
# In short: as §1
# [35] = target: Man(a1-2)Man(a1-6)[Man(a1-3)]Man(a1-6)[Man(a1-2)Man(a1-2)Man(a1-3)]Man(b1-4)GlcNAc(b1-4)GlcNAc
# In short: as §1
# [36] = target: Man(a1-3)[Man(a1-6)]Man
# In short: as §1
# [37] = target: Man(a1-3)[Man(a1-6)]Man(a1-6)[Man(a1-2)Man(a1-3)]Man(b1-4)GlcNAc(b1-4)GlcNAc
# In short: as §1
# [38] = target: Man(a1-3)[Man(a1-6)]Man(a1-6)[Man(a1-3)]Man
# In short: as §1
# [39] = target: Man(a1-3)[Man(a1-6)]Man(a1-6)[Man(a1-3)]Man(b1-4)GlcNAc(b1-4)GlcNAc
# In short: as §1
# [40] = target: Man(a1-3)[Man(a1-6)]Man(b1-4)GlcNAc(b1-4)GlcNAc
# In short: as §1
# [41] = target: Man(a1-3)[Man(a1-6)]Man(b1-4)GlcNAc(b1-4)[Fuc(a1-6)]GlcNAc
# In short: as §1
# [42] = target: Man(a1-6)Man
# In short: as §1
# [43] = target: Man(b1-4)GlcNAc
# In short: as §1
# [44] = target: MurNAc(b1-4)GlcNAc
# In short: as §1
# [45] = target: Neu5Ac(a2-3)Gal
# In short: as §1
binder,measurement,setting,value
B1,glycan array binding signal (z-score),[1],-0.229
same,glycan array binding signal (z-score),[2],-0.321
same,glycan array binding signal (z-score),[3],0.187
same,glycan array binding signal (z-score),[4],0.453
same,glycan array binding signal (z-score),[5],-0.162
same,glycan array binding signal (z-score),[6],-0.377
same,glycan array binding signal (z-score),[7],-0.123
same,glycan array binding signal (z-score),[8],-0.421
same,glycan array binding signal (z-score),[9],0.179
same,glycan array binding signal (z-score),[10],-0.317
same,glycan array binding signal (z-score),[11],-0.074
same,glycan array binding signal (z-score),[12],-0.165
same,glycan array binding signal (z-score),[13],-0.233
same,glycan array binding signal (z-score),[14],-0.602
same,glycan array binding signal (z-score),[15],-0.448
same,glycan array binding signal (z-score),[16],-0.178
same,glycan array binding signal (z-score),[17],-0.451
same,glycan array binding signal (z-score),[18],0.234
same,glycan array binding signal (z-score),[19],-0.117
same,glycan array binding signal (z-score),[20],-0.228
same,glycan array binding signal (z-score),[21],0.281
same,glycan array binding signal (z-score),[22],-0.261
same,glycan array binding signal (z-score),[23],-0.328
same,glycan array binding signal (z-score),[24],-0.463
same,glycan array binding signal (z-score),[25],-0.279
same,glycan array binding signal (z-score),[26],0.054
same,glycan array binding signal (z-score),[27],-0.246
same,glycan array binding signal (z-score),[28],-0.092
same,glycan array binding signal (z-score),[29],0.118
same,glycan array binding signal (z-score),[30],-0.493
same,glycan array binding signal (z-score),[31],-0.23
same,glycan array binding signal (z-score),[32],-0.08
same,glycan array binding signal (z-score),[33],-0.263
same,glycan array binding signal (z-score),[34],-0.687
same,glycan array binding signal (z-score),[35],-0.313
same,glycan array binding signal (z-score),[36],-0.169
same,glycan array binding signal (z-score),[37],-0.235
same,glycan array binding signal (z-score),[38],0.194
same,glycan array binding signal (z-score),[39],-0.464
same,glycan array binding signal (z-score),[40],-0.351
same,glycan array binding signal (z-score),[41],-0.311
same,glycan array binding signal (z-score),[42],-0.037
same,glycan array binding signal (z-score),[43],0.06
same,glycan array binding signal (z-score),[44],-0.13
same,glycan array binding signal (z-score),[45],0.164
